# From PubChem BioAssay AID1347120 (National Center for Advancing Translational Sciences (NCATS), 2019)
# About 930 (0.24%) of roughly 390,000 compounds were called active. The shares of active, inactive and inconclusive entries below differ from those in the screen. Calls follow the shape of the dose curve; as a rule, active = well fitted activation curve with a large enough effect; inconclusive = small, poorly fitted or top-dose-only effect; inactive = no such curve, though single readings can be large or run the other way. Where the call is inconclusive, the potency comes from a doubtful curve fit.
# Assay: qHTS for Suppressors of FUS Proteinopathy: Primary screen using FUS-linked yeast assay; also: nearly all actives have a fitted effect of over 55% in size;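 as to growth rescue (activation): plate controls were DMSO vehicle for no effect and reference control for full effect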
# Settings: S. cerevisiae FUS-expressing, OD600, 24 h; Potency: growth rescue; growth rescue (activation): at 76.6 µM (top of the series)
# Summary of the method: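 Toxicity suppression screen in FUS-yeast. Cells induced with 2% galactose, starting OD 0.005, treated 24hr at 30C with compounds at multiple final concentrations; growth by OD600.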
# Potency is read from the fitted curve at half-maximal effect; tags tell the direction and shape of the fitted curve.
Structure (SMILES),Potency,growth rescue (activation)
CCOC(=O)c1c(C)[nH]c(C)c1S(=O)(=O)N1CCC(C(=O)Nc2cc(Cl)ccc2OC)CC1,"inconclusive: 12.6 µM [activator, partial curve, poor fit]",–
CCc1cc(OCCCSc2nc(C)cc(=O)[nH]2)ccc1Cl,"inconclusive: 10 µM [activator, single point]",–
CCc1nc2ccc(C(=O)NCc3ccccc3OC)cn2c1N(CC)Cc1cccc(Br)c1,"inconclusive: 35.5 µM [activator, partial curve, poor fit]",–
COc1ccc2c(c1)[C@@]1(NCCc3c1[nH]c1ccc(OC)cc31)C(=O)N2,–,inactive: 14.5%
COc1cc(Cl)c(C)cc1NC(=O)C1CCN(c2nc3ccccc3n3cccc23)CC1,"inconclusive: 31.6 µM [activator, single point]",–
Cc1ccc(S(=O)(=O)N2CCC(=O)N([C@H](COC(=O)Nc3ccccc3)Cc3ccccc3)CC2)cc1,"inconclusive: 12.6 µM [activator, partial curve, poor fit]",–
COc1ccccc1-n1c(SCC(=O)c2ccc(O)cc2O)nc2cc([N+](=O)[O-])ccc21,"inconclusive: 25.1 µM [activator, single point]",–
CC(=O)N1c2ccc(S(=O)(=O)N3CCC(C(=O)NCc4ccc(C)cc4)CC3)cc2CC1C (centres undefined),–,inactive: -1.92%
COc1cccc(CNC(=O)c2ccc3c(c2)c(C)c(C)n3Cc2ccccc2)c1,"inconclusive: 31.6 µM [activator, single point]",–
O=C(O)c1cccc(C(=O)Nc2cccc(NC(=O)C3CCCO3)c2)c1 (centres undefined),"inconclusive: 50.1 µM [activator, single point]",–
CCc1cccc(C)c1NS(=O)(=O)c1c(C(=O)N2CCC(C)CC2)c(C)n(C)c1C,"inconclusive: 31.6 µM [activator, single point]",–
Cc1ccc(S(=O)(=O)NCC2Cc3ccccc3N2S(=O)(=O)c2ccc(C)cc2)cc1 (centres undefined),–,inactive: 34.7%
COc1ccc(CN2C(=O)c3cccc4cccc(c34)C2c2nc3ccccc3[nH]2)cc1 (centres undefined),"inconclusive: 14.1 µM [activator, partial curve, poor fit]",–
CC(C)(C)NC(=O)C(c1ccccc1F)n1c(=O)c(-c2cc3ccccc3[nH]2)nc2ccccc21 (centres undefined),"inconclusive: 20 µM [activator, single point]",–
COc1cc(C2C(C#N)=C(N)Oc3c2ccc2ccccc32)ccc1OCC(=O)Nc1ccccc1C (centres undefined),"inconclusive: 35.5 µM [activator, single point]",–
COc1ccc(N2CCN(Cc3nc(N)nc(Nc4ccc(C)c(Cl)c4)n3)CC2)cc1,–,inactive: 22.5%
CCN(CC)C(=O)C1=C(C)N(Cc2ccc(OC)cc2)C(=O)C(CC(=O)NC(c2ccccc2)c2ccccc2)C1 (centres undefined),"inconclusive: 20 µM [activator, single point]",–
CC(C)c1nc(N2CCN(C(=O)c3ccco3)CC2)c2c3c(sc2n1)CCCC3,"inconclusive: 50.1 µM [activator, single point]",–
CC1CCN(S(=O)(=O)c2ccc3c(c2)N(CC(=O)NC(C)c2ccccc2)C(=O)CS3)CC1 (centres undefined),–,inactive: 31.8%
COc1cccc(-n2c(C)cc(/C=C3/C(=N)N4C(=NC3=O)SN=C4S(C)(=O)=O)c2C)c1,"inconclusive: 17.8 µM [activator, partial curve, poor fit]",–

Structure (SMILES),Potency,growth rescue (activation)
CCNc1nc(N)c([N+](=O)[O-])c(Nc2cccc(Cl)c2)n1,–,inactive: -5.07%
O=C(c1ccco1)N1CC2(CC(c3ccc(Cl)cc3)=NO2)CN1Cc1ccc(Br)cc1 (centres undefined),–,inactive: 6.18%
COc1ccccc1C(=O)NCCn1cc(SCC(=O)Nc2ccccc2F)c2ccccc21,"inconclusive: 44.7 µM [activator, single point]",–
Nc1ccc(NC(=O)c2ccc(C(=O)Nc3ccc(N)cc3)cc2)cc1,"inconclusive: 3.55 µM [activator, full curve, poor fit]",–
CC(=O)c1ccc(-c2cnc3c(NC=O)cc(-c4ccccc4Oc4ccccc4)cn23)cc1,active: 25.1 µM,–
CC(C)(C)c1ccc(/C=C/C(=O)c2ccc(NC3=NCCCS3)cc2)cc1,"inconclusive: 50.1 µM [activator, partial curve, poor fit]",–
Cc1ccc(Nc2nnc(SCC(=O)Nc3cccc(S(=O)(=O)NC4=NCCCCC4)c3)s2)cc1,"inconclusive: 35.5 µM [activator, single point]",–
O=C(NCc1ccccc1)c1ccc2c(c1)C(=O)N(CC1CCCO1)C2=O (centres undefined),–,inconclusive: 46.5% [activator]
Cc1ccc(NC(=O)CN2CCCN(Cc3ccccc3Cl)S2(=O)=O)c(C)c1,"inconclusive: 44.7 µM [activator, single point]",–
CS(=O)(=O)c1ccc2nc(NC(=O)Nc3cccc(Cl)c3)sc2c1,"inconclusive: 2.24 µM [activator, partial curve, poor fit]",–
O=C(Cn1cnc2sc(-c3ccccc3)cc2c1=O)NCc1ccccc1,"inconclusive: 12.6 µM [activator, partial curve, poor fit]",–
COc1cc2[nH]c(=O)c(C(=O)NCc3ccc(F)cc3)c(O)c2cc1OC,–,inactive: -18.3%
O=C(c1ccc(Cl)c(Cl)c1)N1CCC(=O)N(C(COCc2ccccc2)Cc2ccccc2)CC1 (centres undefined),"inconclusive: 15.8 µM [activator, partial curve, poor fit]",–
O=C(C1CCCN(S(=O)(=O)c2cccc3nonc23)C1)N1CCN(c2cccc(Cl)c2)CC1 (centres undefined),inactive,–
COc1cccc(CN(C)C(=O)c2ccc(OCC(=O)Nc3cccc(C(F)(F)F)c3)c(OC)c2)c1,–,inactive: 48.6%
COc1cc2c(cc1OC)C(COc1ccccc1OC)N(C(=O)c1ccco1)CC2 (centres undefined),"inconclusive: 50.1 µM [activator, single point]",–
COc1cccc(NC(=O)CN2CCCN(S(=O)(=O)c3ccc(Br)cc3)CC2)c1,–,inactive: 8.22%
COc1ccc(Cn2ccnc2SCC(=O)Nc2ccc(C)cc2C)cc1,–,inactive: 6.22%
C#CCOCCOCCOCCNc1nc(N2CCN(C(=O)CCCCCCCCCCNC(=O)[C@@H](CCC(=O)O)n3cc(CCCCCN)nn3)CC2)nc(N2CCN(C(=O)CCCCCCCCCCNC(=O)[C@H]([C@@H](C)CC)n3cc(CCCCCN)nn3)CC2)n1,"inconclusive: 12.6 µM [activator, partial curve, poor fit]",–
